We go through 44 sequences from the supplement of paper PMC11417369.

± gives the standard deviation of the averaged measurements. The list shows a part of the results.

This assay concerns PfAP2-I AP2 domain 3 (GST-tagged). The experiment in a line: gcPBM binding intensity (ln(normalized median fluorescence intensity)); higher = stronger DNA binding. In a few lines:
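Binding intensity is defined as the maximum Masliner-normalised natural-log median intensity across replicate spots for either probe orientation. It was measured on an Agilent 4 × 180k array of primer-extended double-stranded 36-bp intergenic genomic probes and negative controls, to which GST-tagged P. falciparum DNA-binding domains made in E. coli were applied for 1 h in 1× PBS with 1% milk, 0.2 mg/ml BSA, 0.5% salmon testes DNA and 0.03% Triton X-100. Detection was by Alexa488 anti-GST antibody and scanning at 488 nm.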
With “AAAATAAATATAAAATGTACTTATATATATATATAT [XGTACX_site7803]”, the “gcPBM binding intensity (ln)” value came to 9.24 ± 0.4.

Take “TATGAAGTGCACAATACACACTAATTCTATATAAAT [CACACA_site7269]”: the “gcPBM binding intensity (ln)” value came out at 11 ± 0.71.

As for “ATAATTAAATAAAAAAGTACACATACATCATAATGC [XGTACX_site7656]”, the “gcPBM binding intensity (ln)” value is 7.93 ± 0.42.

Consider “CAATTAAAAAATAATACATGCATATAAATAGATATT [TGCATGCA_site427]”, for which the “gcPBM binding intensity (ln)” value amounted to 7.72 ± 0.49.

In the case of “TTTTAATTAAATACAAAAAAAAAAAAAAAAAAAAAA [CACACA_negctrl_site1631]”, the “gcPBM binding intensity (ln)” value is 8.14 ± 0.91.

Turning to “TTTACACTTTTTTTTGTACACACTAATAAGATTAAC [CACACA_site9304]”, the “gcPBM binding intensity (ln)” value amounted to 8.2 ± 0.39.

“AAAAAAATTTTTAAAAGTACATTAATATTAATATGT [XGTACX_site5177]”: the “gcPBM binding intensity (ln)” value came out at 7.84 ± 0.56.

As to “ACATTACAATTATTATAATCAATATATAACCTCTAA [TGCATGCA_negctrl_site105]”, the “gcPBM binding intensity (ln)” value was 7.88 ± 0.42.

Take “ATAAAATTATATACTCGTACACAAAAAAAAAAAATA [XGTACX_site6035]”: the “gcPBM binding intensity (ln)” value turned out to be 7.96 ± 0.23.

Regarding “AAATATATTTTTTTTTGTACTCAAAAAGAAAAAAAA [XGTACX_site8540]”, the “gcPBM binding intensity (ln)” value amounted to 7.59 ± 0.43.

For the sequence “AAAAATTGAATGATGTGTACTTAAAAGAATATAGAA [XGTACX_site6588]”, the “gcPBM binding intensity (ln)” value was 8.05 ± 0.51.

Take “AATTTTCATTTTAGAAGTACACACAAAAAATAAAAT [XGTACX_site4426]”: the “gcPBM binding intensity (ln)” value was 8.13 ± 0.22.

Regarding “ATTATATTTCAATTATGTACATATAAAATGAATAAA [XGTACX_site4204]”, the “gcPBM binding intensity (ln)” value was 7.78 ± 0.37.

Take “TTTTTTTTTTTTTTTTTTTTCTTCATTTAATTTATA [GTGCAC_negctrl_site17]”: the “gcPBM binding intensity (ln)” value is 8.1 ± 0.73.

For the sequence “TTTTTTTATTATTATTGTACAAGGCCTTAGGTGATT [XGTACX_site5050]”, the “gcPBM binding intensity (ln)” value is 7.99 ± 0.46.

Consider “TTTTCATGTTTTTTTCTTTATTTTTTTTTTTTTTTT [GTGCAC_negctrl_site511]”, for which the “gcPBM binding intensity (ln)” value amounted to 8.3 ± 0.49.

“TACTTAATTATAAGGACATGCACAAAAGGAATTATT [TGCATGCA_site468]”: the “gcPBM binding intensity (ln)” value was 8.71 ± 0.72.

Regarding “ATATAATATAACAATACGCACACGTATACAAAAAAA [CACACA_site3151]”, the “gcPBM binding intensity (ln)” value turned out to be 8.36 ± 0.41.

As to “ATAAAATGCGCAAACACACACAAAAAAAAGATATAT [CACACA_site6875]”, the “gcPBM binding intensity (ln)” value amounted to 8.06 ± 0.75.

As to “TTTTTAATTAATCTTATAAATATTTATAAATATATA [CACACA_negctrl_site1485]”, the “gcPBM binding intensity (ln)” value was 7.57 ± 0.53.

As to “ATGTAATCATTTTCGACTTTTTTTTTTTTTTTTTTT [CACACA_negctrl_site1132]”, the “gcPBM binding intensity (ln)” value was found to be 9.19 ± 0.26.

Regarding “AGGAAATGTTTATATACATGCATAATTAAATATAAT [TGCATGCA_site672]”, the “gcPBM binding intensity (ln)” value turned out to be 7.76 ± 0.67.

As for “GTTGTAAAAAGAAAATGTACGTAATAAATATATATA [XGTACX_site3081]”, the “gcPBM binding intensity (ln)” value stood at 8.29 ± 0.64.

“AATAAAAAAAAAAATAATATATATGTATAAATATAT [CACACA_negctrl_site1561]”: the “gcPBM binding intensity (ln)” value came to 7.39 ± 0.35.

On to “AATACTCCATTGTATAGTACATATATTTTTATTTAT [XGTACX_site3641]”, for which the “gcPBM binding intensity (ln)” value came to 7.59 ± 0.53.

Turning to “TATTTTTATTTATATACACACTTACATATTTATATT [CACACA_site7666]”, the “gcPBM binding intensity (ln)” value was 7.95 ± 0.59.

As for “AGAATTTATAAAAACTGTACATATTTTCCAGTTATA [XGTACX_site2848]”, the “gcPBM binding intensity (ln)” value worked out at 7.58 ± 0.4.

Take “TAATGTACTTAAACCGCACACATATAAAAAAATAAA [CACACA_site8926]”: the “gcPBM binding intensity (ln)” value stood at 8.46 ± 0.014.

Consider “TTATTTTAATTTTTGGTGCATATTCAAGTGTACCTT [GTGCAC_site9791]”, for which the “gcPBM binding intensity (ln)” value was 10.4 ± 0.47.

As to “TATTTACATATTTATATACACACTTTTGCGTGTCTG [CACACA_site1110]”, the “gcPBM binding intensity (ln)” value is 7.78 ± 0.42.

For “ATAAATAATATAAATACACACTAAAAAAGATATATA [CACACA_site6397]”, the “gcPBM binding intensity (ln)” value was 7.54 ± 0.5.

Take “AAATAAAATACAATATGATAAAATGTTATCATATAT [CACACA_negctrl_site538]”: the “gcPBM binding intensity (ln)” value is 7.32 ± 0.45.

With “AATAAAAGGAATAATTGTACATAATGATTATACGTT [XGTACX_site7548]”, the “gcPBM binding intensity (ln)” value came out at 7.59 ± 0.68.

With “TATTTTTTATAATAATGTACATATATATATATAATA [XGTACX_site2329]”, the “gcPBM binding intensity (ln)” value stood at 7.84 ± 0.19.

On to “AATATCATATAAAAATGTACAAATTCTAAAACACGA [XGTACX_site1442]”, for which the “gcPBM binding intensity (ln)” value turned out to be 7.97 ± 0.56.

“ATGTATGTGTAACATAGTACTTTTTAAAAGGATATT [XGTACX_site5328]”: the “gcPBM binding intensity (ln)” value was found to be 7.96 ± 0.61.

As for “TATAGATACATATACACACACACACCCACATATATA [CACACA_site3436]”, the “gcPBM binding intensity (ln)” value turned out to be 8.09 ± 0.042.

As to “ATCAAACCTTTTAAATGTACATTCGGAGTAAAAAAA [XGTACX_site282]”, the “gcPBM binding intensity (ln)” value came out at 7.83 ± 0.74.

Turning to “GTATTCATGCTAAAGGTGCAATAATTTTTATAATAA [GTGCAC_site9603]”, the “gcPBM binding intensity (ln)” value was 11.5 ± 0.61.

Turning to “AAGATAAAATTATGTAGTACAAAAAAAAATAAAAAA [XGTACX_site139]”, the “gcPBM binding intensity (ln)” value was 7.96 ± 0.54.

As for “CGCCTATAAGCTTAGACACACAAATAAATAAATATA [CACACA_site1264]”, the “gcPBM binding intensity (ln)” value is 7.45 ± 0.35.

For “TTAAAAATGTTGGAAAGTACATATTTTTTAAAAGTA [XGTACX_site802]”, the “gcPBM binding intensity (ln)” value is 7.66 ± 0.46.

For “TACCTAATTCGGTCCCGTACAAGTTAGTTTCAATTC [XGTACX_site2703]”, the “gcPBM binding intensity (ln)” value came out at 7.32 ± 0.62.

As for “TATTGGGGGTATAAACACAGTAAGTAAATAAATAAA [CACACA_negctrl_site1680]”, the “gcPBM binding intensity (ln)” value was 9.01 ± 0.12.
